About 7,500 (2.1%) of roughly 360,000 compounds were called active. Inconclusive results, whose numbers are uncertain, are shown with a selection of clear calls. Calls follow the shape of the dose curve; as a rule, active = well fitted cell-killing curve with a large enough effect; inconclusive = small, poorly fitted or top-dose-only effect, or effect the other way, or another doubt; inactive = no such curve, though single readings can be large or run the other way. No potency is given beside an inconclusive call; the fits are too rough.
Assay: qHTS for induction of synthetic lethality in tumor cells producing 2HG: qHTS for the HT-1080-IDH1KD cell line;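 as to activity, negative = toxicity: 0% = DMSO wells and -100% = cell-free medium wells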
Details: HT-1080 IDH1 knockdown viability, ATP luminescence, 48 h; activity, negative = toxicity: at 46.1 µM (top of the series) unless noted
In short: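 Luminescent ATP read-out (CellTiter-Glo, 10 min at room temperature) after 48 h compound exposure at 37 °C gave viability of IDH1-knockdown HT-1080 cells. Activity was normalised to DMSO and cell-free wells, then fitted as concentration-response curves.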
Potency is read from the fitted curve at half-maximal effect; tags tell the direction and shape of the fitted curve.

SMILES | Potency | activity, negative = toxicity
CCN(CC)c1ccc(Nc2nc(N3CCOCC3)c3ccccc3n2)cc1 | inconclusive [cytotoxic, single point] | 
CCC(=O)N1CCN(c2ccccc2NC(=O)COc2cc(C)ccc2C(C)C)CC1 | inconclusive [cytotoxic, single point] | 
Cc1c(CCC(C)C)c(=O)n2c([nH]c3ccccc32)c1C#N |  | inconclusive: -2.99% [cytotoxic]
O=C1[C@H](Cc2ccccc2)NCCCC[C@H](c2ccco2)N1Cc1ccccc1 | inconclusive [cytotoxic, single point] | 
O=c1c2ccccc2nc(-c2ccccc2Cl)n1O | inactive | 
CC1(C)C(=O)NCCN1C(=O)CSc1nccc(-c2ccc(Br)cc2)n1 | inconclusive [cytotoxic, single point] | 
Cc1cc(C(=O)NC2CCCc3c2cnn3-c2cccc(C)c2C)n(C)n1 (stereo not drawn) | inconclusive [cytotoxic, full curve] | 
Cc1cc(Cl)ccc1OCC(=O)NNC(=O)c1ccco1 | inactive | 
COc1cccc(CNc2nc3cc(-c4ccsc4)sc3c(=O)n2C)c1OC | inconclusive [cytotoxic, partial curve] | 
CCCCCn1c(=O)[nH]c2cc(C(=O)NCc3ccco3)ccc2c1=O | inconclusive [cytotoxic, single point] | 
CC(C)C[C@@H](CN1CCC[C@H]1CN1C(=O)C(=O)NC[C@@H]1Cc1ccccc1)N1C[C@H](Cc2ccc(O)cc2)N(CC2CCCCCC2)C(=O)C1=O | active: 18.4 µM | 
CC1(C(=O)NCc2ccc(C(F)(F)F)cc2)CCN1Cc1ccccc1OC(F)F (stereo not drawn) | inconclusive [cytotoxic, single point] | 
COC1CCCN(C(=O)c2ccc3oc(Cc4ccc(Cl)cc4)nc3c2)C1 (stereo not drawn) | inactive | 
C/C(=N\NC(=O)c1cccc(F)c1)c1ccc(Br)s1 | active: 5.62 µM | 
COc1ccc(Br)cc1CNCC1CCCO1 (stereo not drawn) | inactive | 
Cc1c(C(=O)N(Cc2cccc(Br)c2)C2CCS(=O)(=O)C2)oc2ccccc12 (stereo not drawn) | inconclusive [cytotoxic, single point] | 
Cc1ccccc1NC(=S)Nc1cccc2cnccc12 | inactive | 
CS(=O)(=O)N(CC(=O)N1CCc2ccccc2C1)c1ccc2c(c1)OCO2 | inactive | 
CCCc1cc(=O)[nH]c(SCC(=O)c2c(N)n(CC(C)C)c(=O)n(C)c2=O)n1 | active: 3.26 µM | 
CCCC[C@H]1COCCS(=O)(=O)N1Cc1ccc(Br)cc1 | inactive | 
Cc1ccc(S(=O)(=O)NC(=O)NCCc2ccccc2)cc1 | inactive | 
O=C(CN1/C(=C(/O)c2ccccc2)C(=O)c2ccccc2S1(=O)=O)c1ccccc1 | inactive | 
CC1=CC2=NC(=O)/C(=C\c3cccn3CCOc3cc(C)ccc3C)C(=N)N2O1 | inconclusive [cytotoxic, single point] | 
O=C(Nc1ccc(Cc2ccncc2)cc1)c1ccc(Br)o1 | inconclusive [cytotoxic, single point] | 

SMILES | Potency | activity, negative = toxicity
Cc1cc(Cl)ccc1OCC(=O)NNC(=O)c1cnccn1 | inconclusive [cytotoxic, full curve] | 
CCOc1ccc(Oc2ccc(S(=O)(=O)N3CCOCC3)cc2NC(=O)CCNC(C)=O)cc1 | inactive | 
CC[C@@H](C)[C@H](CN[C@H](CNC)C(C)C)NC[C@@H](C)c1ccc(CC(C)C)cc1 | inconclusive [cytotoxic, single point] | 
COCCNC(=O)C(C(=O)c1ccc(F)cc1)n1cc(C)ccc1=O (stereo not drawn) | inactive | 
O=[N+]([O-])c1cnn(-c2nc(-c3ccco3)cc(C(F)(F)F)n2)c1 | inactive | 
Cc1coc2c(O)cc3c(c12)OC1(N2CCCCC2)C(=O)NCCCC31 (stereo not drawn) | inconclusive [cytotoxic, partial curve, poor fit] | 
Oc1ccc(Br)cc1C=Nc1ccc2c3c(cccc13)CC2 | inactive | 
COC(=O)c1[nH]c2ccc(Br)cc2c1NC(=O)CN1CCCc2ccccc21 | inconclusive [cytotoxic, single point] | 
O=C1c2ccccc2-c2onc3ccc(NCCCn4ccnc4)c1c23 | inconclusive [cytotoxic, single point] | 
Cn1c(CCN2CCCCC2)nc2cc(NS(=O)(=O)c3ccccc3)ccc21 | inconclusive [cytotoxic, single point] | 
O=C(Nc1ccc2c(c1)OCO2)C1CC(=O)N(c2ccccc2)C1 (stereo not drawn) | inactive | 
CCOc1ccc(-n2nc3ccc(NC(=O)CC)cc3n2)cc1 | inconclusive [cytotoxic, partial curve] | 
COc1cc2c(cc1NC(=O)CSc1cccc[n+]1[O-])oc1ccccc12 | inactive | 
COCCNC(=O)C1(C)CCCN(Cc2cc(C)ccc2C)C1 (stereo not drawn) | inconclusive [rising, single point] | 
Cc1c(OCC(=O)NCC(O)c2ccccc2)ccc2c3c(c(=O)oc12)CCCC3 (stereo not drawn) | inactive | 
COc1ccc(C2(C)C(C#N)C(=O)NC(=O)C2C#N)cc1 (stereo not drawn) | inactive | 
Cn1cc([N+](=O)[O-])c(C(=O)Nc2cc(Oc3cccnc3)cc([N+](=O)[O-])c2)n1 | active: 18.4 µM | 
CC(C)(C)S(=O)N1Cc2cc(C(=O)NCCCN3CCOCC3)nc(-c3cccc(-c4cc5ccccc5o4)c3)c2[C@H]1CCO (stereo partly drawn) | inconclusive [cytotoxic, single point] | 
CCOC(=O)c1ccn(CSc2c(F)c(F)cc(F)c2F)n1 | inactive | 
CC(C)(C)c1ccc2c(c1)OC(C(=O)N/N=C\c1ccc[nH]1)CO2 (stereo not drawn) | active: 3.66 µM | 
O=C(CN1C(=O)c2ccccc2S1(=O)=O)N1CCN(c2ccccc2F)CC1 | inactive | 
c1ccc(Cn2c(-c3ccco3)nc3nc4ccccc4nc32)cc1 | inconclusive [cytotoxic, single point] | 
O=S(=O)(Nc1ccc2c(c1)OCO2)c1ccc(Cl)cc1F | inactive | 
C[C@@H]1CCCCO[C@H](CN(C)Cc2ccc(Cl)c(Cl)c2)[C@H](C)CN([C@@H](C)CO)C(=O)c2cc(NC(=O)Nc3ccc(F)cc3)ccc2O1 | inconclusive [cytotoxic, partial curve] | 

Source: PubChem BioAssay AID686971 (National Center for Advancing Translational Sciences (NCATS), 2013)
